{"source": "paper PMC10726135", "note": "This is one part of the list. At the low end of the ranking the order means little. The protein was read in a cell extract, so binding may be indirect.", "data": [{"target": "T1, HNF4alpha2 (COS-7 nuclear extract) (UniProt P41235)", "T1 sequence": "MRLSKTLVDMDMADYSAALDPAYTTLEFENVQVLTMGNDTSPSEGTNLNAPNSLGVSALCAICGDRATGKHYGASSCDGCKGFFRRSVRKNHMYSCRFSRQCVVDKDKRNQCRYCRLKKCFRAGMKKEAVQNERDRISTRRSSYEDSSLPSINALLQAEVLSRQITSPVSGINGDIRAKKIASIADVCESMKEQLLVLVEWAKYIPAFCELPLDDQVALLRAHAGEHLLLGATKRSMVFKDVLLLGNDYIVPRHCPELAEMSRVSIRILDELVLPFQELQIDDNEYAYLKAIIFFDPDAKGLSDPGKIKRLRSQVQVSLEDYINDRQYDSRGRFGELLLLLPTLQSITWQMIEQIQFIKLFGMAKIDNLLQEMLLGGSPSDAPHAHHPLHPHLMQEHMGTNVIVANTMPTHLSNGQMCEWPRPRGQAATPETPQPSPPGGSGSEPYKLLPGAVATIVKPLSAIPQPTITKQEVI", "test": "protein-binding microarray", "settings": "COS-7 nuclear extract on double-stranded Agilent 4x180k PBM; binding buffer, salt, pH and temperature not given; high values mean tight binding; double strand, one strand shown; sequences stand for … in …GCCTAGGGAGATTAGAGTATCGGTCGA", "values": [{"sequence": "AGTAAAAGGTAGATACTATAATTAGAATCT", "binding signal (log2 normalized intensity)": -1.05}, {"sequence": "TTACCGGTGTGACTTTGGTTGGATTTCTTG", "binding signal (log2 normalized intensity)": 1.54}, {"sequence": "GAATAGAAAGAGGTCAATGTACTTACAGCT", "binding signal (log2 normalized intensity)": -0.734}, {"sequence": "TTGGAAAGGCAGAGGAAAGCCCTAGCTGAC", "binding signal (log2 normalized intensity)": -1.07}, {"sequence": "TATCTATTGGGTACAATGTTCACTATTTGA", "binding signal (log2 normalized intensity)": 2.76}, {"sequence": "TGCTTTAGGCCACCTGTGTCAACATGGACT", "binding signal (log2 normalized intensity)": 2.48}, {"sequence": "GCTAGAGAGTTCAAGAAGGGCAGTTGACAG", "binding signal (log2 normalized intensity)": -0.995}, {"sequence": "CAAAAAGGCAAAGGTGTCAGGACCTTTCTT", "binding signal (log2 normalized intensity)": 0.634}, {"sequence": "TTTCCCCCTCACTGAATATGTTCGGGAGAC", "binding signal (log2 normalized intensity)": 2.61}, {"sequence": "ACCCGGTGTGCGTGGGTGGGAAATCATTCC", "binding signal (log2 normalized intensity)": 0.922}, {"sequence": "CTTTCTATCAGCTCTCCGTGGACTTTGCCC", "binding signal (log2 normalized intensity)": 9.49}, {"sequence": "CTAAGGGCATCTACTTTTAAAACGCTCAAA", "binding signal (log2 normalized intensity)": -1.13}, {"sequence": "AAGGTCACCTCTTCAGATAGCCTTTGCCTC", "binding signal (log2 normalized intensity)": 0.723}, {"sequence": "ACTGCATTCCCTAGATGTCGCAGTAGATAA", "binding signal (log2 normalized intensity)": -0.864}, {"sequence": "AACTTCTTCCAATGAAAGGTTAACCTGCTG", "binding signal (log2 normalized intensity)": 1.36}, {"sequence": "GGAAAAAGGGACAAAACTTCAAAGCCCCTG", "binding signal (log2 normalized intensity)": 1.56}, {"sequence": "CCCATGGCAGAGGCTGTACTCCTCACTGTT", "binding signal (log2 normalized intensity)": -0.0328}, {"sequence": "CTGGGCCCAAGTGCTCCTCCCCATCTCAGC", "binding signal (log2 normalized intensity)": 3.17}, {"sequence": "GATCCAGTGTGCAAATGTGTCTTTTTTAGT", "binding signal (log2 normalized intensity)": 1.7}, {"sequence": "GGGATGAGGACTTTGATCAGCAATGGAGAG", "binding signal (log2 normalized intensity)": 2.84}, {"sequence": "ACAGAAGCTGCTCTAAGAATGCAGAAACAA", "binding signal (log2 normalized intensity)": -1.13}, {"sequence": "CTTGTTAGTAGGGTCAAAGTCTGGATCCGT", "binding signal (log2 normalized intensity)": 4.75}, {"sequence": "TCTTGTCCTTCCCCTTTTGTGTTTGTCCCT", "binding signal (log2 normalized intensity)": 3.04}, {"sequence": "AAGGTAGGTAAGGGGGAATGCCAACAGGTC", "binding signal (log2 normalized intensity)": -0.572}, {"sequence": "AAAATTCCTTATGGTTAAGGTGAAAGTCCG", "binding signal (log2 normalized intensity)": 3.58}, {"sequence": "ATAAAAGGCTGTTCTGATGCCATTCCCTGC", "binding signal (log2 normalized intensity)": -0.986}, {"sequence": "AACATTCTTCTCAGTGTTTTGGGTCCTACA", "binding signal (log2 normalized intensity)": 1.45}, {"sequence": "TACAGTGCACTTTGACCGCTCATTTGATCC", "binding signal (log2 normalized intensity)": 4.9}, {"sequence": "AACCTATTAATATATTCATAACACTTGTAT", "binding signal (log2 normalized intensity)": 1.36}, {"sequence": "CGTATGAATGTGGGAAGCTGGCACAGCAGA", "binding signal (log2 normalized intensity)": -0.822}, {"sequence": "GCCACATCCCCCACACCGAGATAGTAGAGA", "binding signal (log2 normalized intensity)": 3.19}, {"sequence": "CAATTTCCCCCATGAAATTGAGATAAACAT", "binding signal (log2 normalized intensity)": 2.53}, {"sequence": "TGTGACCTTTGACTCATTATCCCCCGCAAC", "binding signal (log2 normalized intensity)": 5.33}, {"sequence": "AGTGTATTGTTCCCTTGCTCCACCCTTCTA", "binding signal (log2 normalized intensity)": 1.85}, {"sequence": "CTCTTAGTATTACCATGTCCTGTGATTAAG", "binding signal (log2 normalized intensity)": 1.66}, {"sequence": "TTTGTCTCTGGAGGGATCAGGTCTTTCCTG", "binding signal (log2 normalized intensity)": 1.47}, {"sequence": "CCGTCCACCTTTGGATCCAGCTCCTGATGT", "binding signal (log2 normalized intensity)": 1.03}, {"sequence": "AGCTGCAGTCATGGAGGCATCATAAACTCC", "binding signal (log2 normalized intensity)": -1.08}, {"sequence": "CCCAGTGAGCAATTCTTGTCCCTTTCAAGG", "binding signal (log2 normalized intensity)": 0.836}, {"sequence": "GGTCAAGAGTTTTAAAGTATCCCATCCATT", "binding signal (log2 normalized intensity)": 1.67}]}]}
